# The other results are listed elsewhere or left out.
# Legend:
# Assay in all cases: glycan array binding signal (z-score within array); higher = stronger binding
# Conditions in all cases: glycan notation: IUPAC condensed, linker removed
# [1] = target: GlcNAc(a1-4)Gal(b1-4)GlcNAc(b1-3)Gal(b1-4)GlcNAc(b1-3)Gal(b1-4)GlcNAc
# In short: (§1)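 Glycan array binding is given as a within-array Z-score, which can be read as non-binding when negative. The arrays, 3228 of them, came from the Consortium for Functional Glycomics database and were retained only where the protein sequence was available. Z-scores were averaged across arrays of the same protein sequence at different concentrations or buffers and across linkers.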
# [2] = target: GlcNAc(a1-4)Gal(b1-4)GlcNAc(b1-3)Gal(b1-4)[Fuc(a1-3)]GlcNAc(b1-3)Gal(b1-4)[Fuc(a1-3)]GlcNAc
# In short: as §1
# [3] = target: GlcNAc(a1-6)Gal(b1-4)GlcNAc
# In short: as §1
# [4] = target: GlcNAc(b1-2)Gal(b1-3)GalNAc
# In short: as §1
# [5] = target: GlcNAc(b1-2)Man(a1-3)[GlcNAc(b1-2)Man(a1-6)]Man(b1-4)GlcNAc(b1-4)GlcNAc
# In short: as §1
# [6] = target: GlcNAc(b1-2)Man(a1-3)[GlcNAc(b1-2)Man(a1-6)]Man(b1-4)GlcNAc(b1-4)[Fuc(a1-6)]GlcNAc
# In short: as §1
# [7] = target: GlcNAc(b1-2)Man(a1-3)[GlcNAc(b1-4)][GlcNAc(b1-2)Man(a1-6)]Man(b1-4)GlcNAc(b1-4)GlcNAc
# In short: as §1
# [8] = target: GlcNAc(b1-2)[GlcNAc(b1-4)]Man(a1-3)[GlcNAc(b1-2)Man(a1-6)]Man(b1-4)GlcNAc(b1-4)GlcNAc
# In short: as §1
# [9] = target: GlcNAc(b1-2)[GlcNAc(b1-4)]Man(a1-3)[GlcNAc(b1-4)][GlcNAc(b1-2)Man(a1-6)]Man(b1-4)GlcNAc(b1-4)GlcNAc
# In short: as §1
# [10] = target: GlcNAc(b1-2)[GlcNAc(b1-4)]Man(a1-3)[GlcNAc(b1-4)][GlcNAc(b1-2)[GlcNAc(b1-6)]Man(a1-6)]Man(b1-4)GlcNAc(b1-4)GlcNAc
# In short: as §1
# [11] = target: GlcNAc(b1-2)[GlcNAc(b1-4)]Man(a1-3)[GlcNAc(b1-4)][GlcNAc(b1-2)[GlcNAc(b1-6)]Man(a1-6)]Man(b1-4)GlcNAc(b1-4)[Fuc(a1-6)]GlcNAc
# In short: as §1
# [12] = target: GlcNAc(b1-2)[GlcNAc(b1-6)]Man(a1-6)[GlcNAc(b1-2)Man(a1-3)]Man(b1-4)GlcNAc(b1-4)GlcNAc
# In short: as §1
# [13] = target: GlcNAc(b1-2)[GlcNAc(b1-6)]Man(a1-6)[GlcNAc(b1-2)Man(a1-3)]Man(b1-4)GlcNAc(b1-4)[Fuc(a1-6)]GlcNAc
# In short: as §1
# [14] = target: GlcNAc(b1-2)[GlcNAc(b1-6)]Man(a1-6)[GlcNAc(b1-2)Man(a1-3)][GlcNAc(b1-4)]Man(b1-4)GlcNAc(b1-4)GlcNAc
# In short: as §1
# GlcNAc(b1-3)Gal = target: GlcNAc(b1-3)Gal
# In short: as §1
# [15] = target: GlcNAc(b1-3)Gal(b1-3)GalNAc
# In short: as §1
# GlcNAc(b1-3)Gal(b1-4)Glc = target: GlcNAc(b1-3)Gal(b1-4)Glc
# In short: as §1
# [16] = target: GlcNAc(b1-3)Gal(b1-4)GlcNAc
# In short: as §1
# [17] = target: GlcNAc(b1-3)Gal(b1-4)GlcNAc(b1-3)Gal(b1-4)GlcNAc
# In short: as §1
# GlcNAc(b1-3)GalNAc = target: GlcNAc(b1-3)GalNAc
# In short: as §1
# GlcNAc(b1-3)Man = target: GlcNAc(b1-3)Man
# In short: as §1
# [18] = target: GlcNAc(b1-3)[GlcNAc(b1-4)][GlcNAc(b1-6)]GlcNAc
# In short: as §1
# [19] = target: GlcNAc(b1-3)[GlcNAc(b1-6)]Gal(b1-4)GlcNAc
# In short: as §1
# [20] = target: GlcNAc(b1-3)[GlcNAc(b1-6)]GalNAc
# In short: as §1
# [21] = target: GlcNAc(b1-4)Gal(b1-4)GlcNAc
# In short: as §1
# GlcNAc(b1-4)GlcNAc = target: GlcNAc(b1-4)GlcNAc
# In short: as §1
# [22] = target: GlcNAc(b1-4)GlcNAc(b1-4)GlcNAc
# In short: as §1
# [23] = target: GlcNAc(b1-4)GlcNAc(b1-4)GlcNAc(b1-4)GlcNAc(b1-4)GlcNAc
# In short: as §1
# [24] = target: GlcNAc(b1-4)GlcNAc(b1-4)GlcNAc(b1-4)GlcNAc(b1-4)GlcNAc(b1-4)GlcNAc
# In short: as §1
# [25] = target: GlcNAc(b1-4)[GlcNAc(b1-6)]GalNAc
# In short: as §1
# [26] = target: GlcNAc(b1-6)Gal(b1-4)GlcNAc
# In short: as §1
# GlcNAc(b1-6)GalNAc = target: GlcNAc(b1-6)GalNAc
# In short: as §1
# GlcNAc3Prop(b1-4)GlcNAc = target: GlcNAc3Prop(b1-4)GlcNAc
# In short: as §1
# [27] = target: GlcNAc6S(b1-3)Gal(b1-4)GlcNAc
# In short: as §1
# Kdn(a2-3)Gal(b1-3)GalNAc = target: Kdn(a2-3)Gal(b1-3)GalNAc
# In short: as §1
# Kdn(a2-3)Gal(b1-3)GlcNAc = target: Kdn(a2-3)Gal(b1-3)GlcNAc
# In short: as §1
# Kdn(a2-3)Gal(b1-4)Glc = target: Kdn(a2-3)Gal(b1-4)Glc
# In short: as §1
# Kdn(a2-3)Gal(b1-4)GlcNAc = target: Kdn(a2-3)Gal(b1-4)GlcNAc
# In short: as §1
# [28] = target: Kdn(a2-3)Gal(b1-4)[Fuc(a1-3)]GlcNAc
# In short: as §1
# Kdn(a2-6)Gal(b1-4)GlcNAc = target: Kdn(a2-6)Gal(b1-4)GlcNAc
# In short: as §1
# [29] = target: Man(a1-2)Man(a1-2)Man(a1-3)Man
# In short: as §1
# [30] = target: Man(a1-2)Man(a1-2)Man(a1-6)[Man(a1-3)]Man
# In short: as §1
# Man(a1-2)Man(a1-3)Man = target: Man(a1-2)Man(a1-3)Man
# In short: as §1
# [31] = target: Man(a1-2)Man(a1-3)[Man(a1-2)Man(a1-6)]Man
# In short: as §1
# [32] = target: Man(a1-2)Man(a1-3)[Man(a1-2)Man(a1-6)]Man(a1-6)[Man(a1-2)Man(a1-2)Man(a1-3)]Man
# In short: as §1
binder,measurement,setting,value
Morniga (Morus nigra) (protein) MAGTSTNTQTTGTSQTVEVGLWGGPGGNAWDDGSYTGIREINLSHGDAIGAFSVIYDLNGQPFTGPTHPGNEPSFKTVKITLDFPNEFLVSVSGYTGVLPRLATGKDVIRSLTFKTNKKTYGPYGKEEGTPFSLPIENGLIVGFKGRSGFVVDAIGVHLS,glycan array binding signal (z-score),[1],-0.327
same,glycan array binding signal (z-score),[2],0.158
same,glycan array binding signal (z-score),[3],-0.202
same,glycan array binding signal (z-score),[4],-0.33
same,glycan array binding signal (z-score),[5],3.52
same,glycan array binding signal (z-score),[6],0.79
same,glycan array binding signal (z-score),[7],1.43
same,glycan array binding signal (z-score),[8],-0.198
same,glycan array binding signal (z-score),[9],-0.329
same,glycan array binding signal (z-score),[10],-0.331
same,glycan array binding signal (z-score),[11],-0.336
same,glycan array binding signal (z-score),[12],2.48
same,glycan array binding signal (z-score),[13],1.94
same,glycan array binding signal (z-score),[14],1.82
same,glycan array binding signal (z-score),GlcNAc(b1-3)Gal,-0.34
same,glycan array binding signal (z-score),[15],-0.326
same,glycan array binding signal (z-score),GlcNAc(b1-3)Gal(b1-4)Glc,-0.331
same,glycan array binding signal (z-score),[16],-0.34
same,glycan array binding signal (z-score),[17],-0.337
same,glycan array binding signal (z-score),GlcNAc(b1-3)GalNAc,-0.333
same,glycan array binding signal (z-score),GlcNAc(b1-3)Man,-0.34
same,glycan array binding signal (z-score),[18],-0.334
same,glycan array binding signal (z-score),[19],-0.34
same,glycan array binding signal (z-score),[20],-0.331
same,glycan array binding signal (z-score),[21],-0.337
same,glycan array binding signal (z-score),GlcNAc(b1-4)GlcNAc,-0.336
same,glycan array binding signal (z-score),[22],-0.318
same,glycan array binding signal (z-score),[23],-0.335
same,glycan array binding signal (z-score),[24],-0.329
same,glycan array binding signal (z-score),[25],-0.331
same,glycan array binding signal (z-score),[26],-0.332
same,glycan array binding signal (z-score),GlcNAc(b1-6)GalNAc,-0.339
same,glycan array binding signal (z-score),GlcNAc3Prop(b1-4)GlcNAc,-0.339
same,glycan array binding signal (z-score),[27],-0.338
same,glycan array binding signal (z-score),Kdn(a2-3)Gal(b1-3)GalNAc,-0.198
same,glycan array binding signal (z-score),Kdn(a2-3)Gal(b1-3)GlcNAc,-0.333
same,glycan array binding signal (z-score),Kdn(a2-3)Gal(b1-4)Glc,-0.336
same,glycan array binding signal (z-score),Kdn(a2-3)Gal(b1-4)GlcNAc,-0.331
same,glycan array binding signal (z-score),[28],-0.325
same,glycan array binding signal (z-score),Kdn(a2-6)Gal(b1-4)GlcNAc,-0.329
same,glycan array binding signal (z-score),[29],-0.334
same,glycan array binding signal (z-score),[30],-0.33
same,glycan array binding signal (z-score),Man(a1-2)Man(a1-3)Man,-0.342
same,glycan array binding signal (z-score),[31],-0.331
same,glycan array binding signal (z-score),[32],-0.327

# — the supplement of paper PMC8728848
